Test results as given in PubChem BioAssay (NCATS).
The list shows a part of the results. The main result of the screen is listed elsewhere. These columns were measured beside it and carry no call. The list favours compounds with an active or inconclusive main result. Potencies come from curve fits of mixed quality, noted in brackets.

Experiment: qHTS Assay for Lipid Storage Modulators (AID 1519)
Conditions: Drosophila S3 cells, BODIPY lipid droplet/cell ratio, laser cytometry, cells loaded with oleic acid; for AC50: measured here: lipid (BODIPY) channel AC50
Method in brief: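 Cells seeded at 5,000 per well were treated with compounds over a concentration series and loaded with oleic acid (400 uM, as added). Lipid droplet fluorescence (488 nm excitation, 500-530 nm channel) was read by laser-scanning cytometry and normalized to 20 uM Triacsin C.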

[1] = measured here: cell count channel max response
[2] = measured here: lipid channel max response
Tags describe the fitted curve by direction and shape.

SMILES | max response [1] [%] | AC50 | max response [2] [%]
O=c1c(-c2ccccc2)nc2cnc(N3CCNCC3)nc2n1Cc1cccs1 | 10 | 1.58 µM [rising, full curve, poor fit] | 17.3
COc1ccc(-n2c(=O)c(-c3ccc(Cl)cc3)nc3cnc(N(C)C)nc32)cc1 | 27.3 | 0.1 µM [rising, full curve, poor fit] | 39.1
O=c1c(-c2ccc(O)cc2)coc2c(C3OC(CO)C(O)C(O)C3O)c(O)ccc12 (configuration not stated) | 17 | 0.126 µM [rising, full curve, poor fit] | 31.9
CS(=O)(=O)N1CCC2(CCCN(C(=O)Nc3cccc(F)c3)C2)CC1 | 16 | 0.00794 µM [rising, full curve, poor fit] | 25
Cc1noc(C)c1C(=O)N1CCC2(CC1)CCN(C(c1ccccc1)c1ccccc1)CC2 | 20.9 | 39.8 µM [rising, single point] | 36.5
Cn1cccc1C(=O)N1CCC[C@@]2(CCN(Cc3nccs3)C2)C1 | 25.7 | 20 µM [rising, partial curve, poor fit] | 39.1
COc1cccc(Cn2c(=O)c(C)nc3cnc(N4CCNCC4)nc32)c1 | 22.6 | 0.0501 µM [rising, full curve, poor fit] | 30.6
COCCn1c(=O)c(C)nc2cnc(OC)nc21 | 14.6 | 5.01 µM [rising, single point] | 20
C[N+]1(C)C2CCC1CC(OC(=O)C(O)c1ccccc1)C2 (configuration not stated) | 23.5 | 39.8 µM [rising, single point] | 37.9
